Assay results taken from PubChem BioAssay AID485294 (National Center for Advancing Translational Sciences (NCATS), 2010).
Screen size: about 370,000 compounds; about 150 (0.041%) were called active. The inconclusive results got no clear call from the source; some entries with a clear call stand among them for comparison. Calls come from the whole dose curve; as a rule, active = well fitted inhibition curve with a large enough effect; inconclusive = small, poorly fitted or top-dose-only effect; inactive = flat fitted curve, though single readings scatter. No potency is given beside an inconclusive call; the fits are too rough.

molecular target: Beta-lactamase (Escherichia coli (strain K12)) (UniProt P00811); assay: qHTS Inhibitors of AmpC Beta-Lactamase (assay with detergent); conditions: AmpC hydrolysis of nitrocefin, absorbance 480 nm, 0.01% Triton; activity change, negative = inhibition: at 114 µM (top of the series); note: nearly all actives have a fitted effect of over 25% in size;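 for activity change, negative = inhibition: 0% = no-compound wells and -100% = no-enzyme wells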
Procedure, shortened: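 AmpC (5.3 nM in the dispensed reagent) in 20 mM phosphate pH 7.0 with 0.01% (detergent screen) or 0.0001% Triton X-100 was preincubated with compounds for 15 min at room temperature. Nitrocefin was then added from an 800 uM solution, and hydrolysis was followed at 480 nm.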
Potency is the fitted concentration of half-maximal effect; tags give direction and shape of the fitted curve.

Sequence of UniProt P00811 (P00811 whole entry, looked up): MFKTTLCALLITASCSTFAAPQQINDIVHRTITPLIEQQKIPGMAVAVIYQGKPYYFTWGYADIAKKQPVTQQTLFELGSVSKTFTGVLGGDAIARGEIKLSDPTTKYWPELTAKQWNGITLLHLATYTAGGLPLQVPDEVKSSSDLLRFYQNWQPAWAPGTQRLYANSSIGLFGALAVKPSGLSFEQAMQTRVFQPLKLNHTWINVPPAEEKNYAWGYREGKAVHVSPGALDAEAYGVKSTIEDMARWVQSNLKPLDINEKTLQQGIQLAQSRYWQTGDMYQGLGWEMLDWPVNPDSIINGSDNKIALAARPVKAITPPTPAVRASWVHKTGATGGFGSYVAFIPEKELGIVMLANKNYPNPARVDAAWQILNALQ

Which “activity change, negative = inhibition” value does the source give for `Cn1cccc1/C=C1\SC(=O)N(c2ccc(O)cc2)C1=O` here?
The value was inactive: -6.34%.

For `O=Cc1cn(-c2ccccc2)nc1-c1ccccc1`, which Potency is on record?
Its Potency is inconclusive [inhibitor, full curve, poor fit].

How did the Potency turn out when `Cc1ccc(CCN2CC(C(=O)O)CC2=O)cc1` (stereo unspecified) was run?
The Potency was inconclusive [inhibitor, single point].

With `CN(CCOC(=O)c1ccco1)Cc1ccccc1` as the compound, how does the Potency read?
Its Potency is inconclusive [inhibitor, full curve, poor fit].

With `CC1Cc2cc(S(=O)(=O)CCC(=O)N3CCN(c4ccccc4)CC3)ccc2N1C(=O)C1CC1` (stereo unspecified) as the compound, how does the Potency read?
The Potency was inconclusive [inhibitor, single point].

With `O=C(c1ccc(F)cc1)N1CCC2(CC1)NCCc1[nH]cnc12` as the compound, how does the “activity change, negative = inhibition” value read?
The value was inactive: 8.38%.

For `Cc1ccc(N(Cc2ccccc2)C(=O)c2cc(S(=O)(=O)N3CCOCC3)ccc2Cl)cc1`, which Potency is on record?
Its Potency is inconclusive [inhibitor, full curve, poor fit].

With `Cc1ccccc1C(=O)Oc1ccc2ccc(O)cc2c1` as the compound, how does the “activity change, negative = inhibition” value read?
The value was inactive: 6.3%.

How did the Potency turn out when `CSc1ccc(Cl)c(C(=O)NC2CCCC2)c1` was run?
The Potency was inconclusive [inhibitor, full curve, poor fit].

Which “activity change, negative = inhibition” value does the source give for `O=C(C1CCN(S(=O)(=O)c2ccc(F)cc2)CC1)N1CCOCC1` here?
The value was inactive: -5.22%.

`COC(=O)c1[nH]c2cc(OC)ccc2c1NC(=O)CCN1CCCC(C)(C)C1` was tested. Which “activity change, negative = inhibition” value did it give?
Its value is inactive: 0.851%.

With `Cn1c(COc2ccccc2)nnc1SCc1nc2ccccc2[nH]1` as the compound, how does the Potency read?
The Potency was inconclusive [inhibitor, single point].

`COC(=O)c1cc2ccccc2c(-c2c(OC)c(C(=O)OC)cc3ccccc23)c1OC` was tested. Which Potency did it give?
The Potency was inconclusive [inhibitor, full curve].

`C=CCN(c1ccccc1)S(=O)(=O)c1cccc(C(=O)N2CC(C)CC(C)C2)c1` (stereo unspecified) was tested. Which “activity change, negative = inhibition” value did it give?
Its value is inactive: -13.4%.

`COCCOc1cc(N2C(=O)CSCC2=O)c(Cl)cc1Cl` was tested. Which Potency did it give?
Its Potency is inconclusive [inhibitor, full curve].

How did the Potency turn out when `Fc1ccccc1NC(=S)NCc1ccc(Cl)cc1` was run?
The Potency was inconclusive [inhibitor, full curve, poor fit].

For `COc1cc2c(C(=O)NCc3ccccn3)cn(CC(C)C)c(=O)c2cc1OC`, which Potency is on record?
Its Potency is inconclusive [inhibitor, single point].

For `O=C(Cc1ccc(NC2=NC3CS(=O)(=O)CC3S2)cc1)NCc1ccccc1Cl` (stereo unspecified), which Potency is on record?
Its Potency is inconclusive [inhibitor, full curve, poor fit].

With `CCN(CC)C(=O)CSc1nc(N)c(C#N)c(-c2cccs2)c1C#N` as the compound, how does the “activity change, negative = inhibition” value read?
The value was inactive: -12.3%.

How did the Potency turn out when `Cn1nc([N+](=O)[O-])c(C(C#N)c2ccccn2)c(Cl)c1=O` (stereo unspecified) was run?
Its Potency is inconclusive [inhibitor, single point].

Which “activity change, negative = inhibition” value does the source give for `CCN(CC(=O)Nc1c(C(=O)OC)[nH]c2ccccc12)c1ccc2c(c1)OCO2` here?
Its value is inactive: 3.75%.

`Cc1cc(C)cc(S(=O)(=O)c2cnc3ccccc3n2)c1` was tested. Which Potency did it give?
The Potency was inconclusive [inhibitor, full curve, poor fit].

Which “activity change, negative = inhibition” value does the source give for `CCc1ccccc1NC(=O)CSc1nc2n[nH]c(C)c2c(=N)n1-c1cccc(OC)c1` here?
Its value is inactive: 1.57%.

How did the “activity change, negative = inhibition” value turn out when `Cc1ccc(NC(=O)Cn2ncc3c4ccccc4n(Cc4ccccc4)c3c2=O)cc1Cl` was run?
The value was inactive: 9.18%.

Which Potency does the source give for `CCCNCc1cc(OC)c(OCCC)cc1Cl` here?
Its Potency is inconclusive [inhibitor, partial curve, poor fit].

`O=S(=O)(c1ccc2c(c1)OCCCO2)N1CCNCC1` was tested. Which Potency did it give?
Its Potency is inconclusive [inhibitor, single point].

Which Potency does the source give for `CCCCc1ccc(NC(=O)CSc2nc(=O)n(CCN3CCOCC3)c3c2CCC3)cc1` here?
Its Potency is inconclusive [inhibitor, full curve].

With `CNC(=O)c1ccc(Nc2nnc(-c3ccc(C)c(S(N)(=O)=O)c3)c3ccccc23)cc1` as the compound, how does the Potency read?
Its Potency is inconclusive [inhibitor, full curve, poor fit].

How did the “activity change, negative = inhibition” value turn out when `CCOC(=O)N1CCN(c2c(Nc3ccc4c(c3)OCCO4)c(=O)c2=O)CC1` was run?
Its value is inactive: 4.18%.

How did the “activity change, negative = inhibition” value turn out when `O=C(CNS(=O)(=O)c1ccccc1)OCC(=O)c1ccccc1Cl` was run?
The value was inactive: 1.75%.

With `O=C(O)C1CCC(Cn2c(SCc3cc(=O)n4ccccc4n3)nc3ccsc3c2=O)CC1` (stereo unspecified) as the compound, how does the Potency read?
Its Potency is inconclusive [inhibitor, partial curve].

`O=C(CO)N/N=C/c1cccc(Cl)c1Cl` was tested. Which “activity change, negative = inhibition” value did it give?
The value was inactive: -16.2%.

For `Cc1ccc(C)c(N2CCN(C(=O)c3csc4ccccc34)CC2)c1`, which Potency is on record?
Its Potency is inconclusive [inhibitor, partial curve, poor fit].

Which Potency does the source give for `C=CCNc1nc(Nc2cc(Cl)ccc2OC)nc(OC)n1` here?
Its Potency is inconclusive [inhibitor, partial curve].

With `N#Cc1ccc(CSc2ncccn2)cc1` as the compound, how does the Potency read?
The Potency was inconclusive [inhibitor, full curve, poor fit].

How did the Potency turn out when `CCC1=NN2C(=N)/C(=C\c3ccc(SCc4ccco4)o3)C(=O)N=C2S1` was run?
Its Potency is inconclusive [inhibitor, full curve, poor fit].

With `Cc1ccc(-c2csc3ncnc(SCC(N)=O)c23)cc1` as the compound, how does the “activity change, negative = inhibition” value read?
The value was inactive: 3.76%.

How did the Potency turn out when `CN(C(=O)c1ccc(Cl)c(S(=O)(=O)N2CCOCC2)c1)c1ccccc1C(=O)O` was run?
The Potency was inconclusive [inhibitor, full curve, poor fit].

With `COc1ccc2c(c1)c(C(O)CN1CCC3(CC1)OCCO3)c(C)n2C` (stereo unspecified) as the compound, how does the Potency read?
Its Potency is inconclusive [inhibitor, full curve, poor fit].

With `Cc1cccn2c(=O)c3cc(C#N)c(=O)n(Cc4cccnc4)c3nc12` as the compound, how does the Potency read?
The Potency was inconclusive [inhibitor, full curve].

Which Potency does the source give for `Cc1cc(N=Cc2c(O)n(-c3ccc4c(c3)OCO4)c(=O)c3ccccc23)ccn1` here?
The Potency was inconclusive [inhibitor, partial curve, poor fit].

`CCCN1CCc2c(sc(NC(=O)CCS(=O)(=O)c3ccccc3)c2C(N)=O)C1` was tested. Which Potency did it give?
The Potency was inconclusive [inhibitor, partial curve].

`O=C(Cc1ccccc1)NCCS(=O)(=O)N1CCN(c2ccccc2)CC1` was tested. Which Potency did it give?
The Potency was inconclusive [inhibitor, full curve, poor fit].

`COC(=O)c1cccc(NC(=S)N2CCN(C)CC2)c1` was tested. Which Potency did it give?
The Potency was inconclusive [inhibitor, full curve, poor fit].

`CCCc1nc(NCc2ccco2)c(C#N)c2c1COC(C)(C)C2` was tested. Which Potency did it give?
The Potency was inconclusive [inhibitor, full curve, poor fit].

How did the Potency turn out when `CCC(=O)OCCNc1cc(Sc2nc3ccccc3[nH]2)c2nonc2c1[N+](=O)[O-]` was run?
Its Potency is inconclusive [inhibitor, full curve, poor fit].

`CC(C)=CCC/C(C)=C/Cc1c(O)ccc(C(=O)/C=C/c2ccc(O)cc2)c1O` was tested. Which “activity change, negative = inhibition” value did it give?
The value was inactive: -2.05%.

Which Potency does the source give for `Cc1ccc(N2C(=O)NC(=O)/C(=C\c3ccsc3)C2=O)cc1C` here?
The Potency was inconclusive [inhibitor, single point].

Which Potency does the source give for `Cc1cccc(-c2nc(CS(=O)CC(=O)NCCc3ccc(Cl)cc3)c(C)o2)c1` (stereo unspecified) here?
Its Potency is inconclusive [inhibitor, partial curve].

Which “activity change, negative = inhibition” value does the source give for `CCn1ccc2cc(S(=O)(=O)N3CCCN(C(=O)Nc4ccc(C)cc4)CC3)ccc21` here?
Its value is inactive: 15.3%.

For `Cc1ccccc1OCC(=O)N(Cc1nnc(-c2ccc(Cl)cc2)o1)C(C)C`, which Potency is on record?
The Potency was inconclusive [inhibitor, single point].

`C=CCn1c(O)c(N=Nc2c(C)n(C)n(-c3ccccc3)c2=O)c(=O)[nH]c1=S` was tested. Which Potency did it give?
The Potency was inconclusive [inhibitor, single point].

For `Cc1ccc(NS(=O)(=O)c2cc(NC(=O)C(C)Oc3ccccc3)ccc2C)c(C)c1` (stereo unspecified), which Potency is on record?
Its Potency is inconclusive [inhibitor, partial curve].

For `CCOc1ccc(/C=C2\SC(=S)NC2=O)cc1OC`, which “activity change, negative = inhibition” value is on record?
Its value is inactive: -1.91%.

How did the Potency turn out when `Clc1ccc(C[n+]2cc(-c3ccccc3)n3c2CCC3)cc1Cl` was run?
Its Potency is inconclusive [inhibitor, full curve, poor fit].

`CCN(CC)S(=O)(=O)c1ccc(NC(=O)CN(c2ccc(OC)cc2OC)S(C)(=O)=O)cc1` was tested. Which Potency did it give?
Its Potency is inconclusive [inhibitor, partial curve].

`O=C(c1cc(COc2ccc(F)cc2F)on1)N1CCCC(c2ccccc2)C1` (stereo unspecified) was tested. Which “activity change, negative = inhibition” value did it give?
The value was inactive: 9.63%.

With `COc1ccc(C(C)=O)cc1Cc1c(O)[nH]c(=S)[nH]c1=O` as the compound, how does the Potency read?
The Potency was inconclusive [inhibitor, partial curve, poor fit].

`Cc1c(Cc2ccccc2)c(=O)oc2c(C)c(OCC(=O)N3CCC(C(=O)O)CC3)ccc12` was tested. Which Potency did it give?
Its Potency is inconclusive [inhibitor, full curve, poor fit].

Which Potency does the source give for `COc1ccc(NC(=O)CN(C)C(=O)c2cc(-c3ccccc3)nc3ccccc23)cc1` here?
Its Potency is inconclusive [inhibitor, full curve, poor fit].

For `O=C1CN(O)C(c2ccccc2)=c2cc(Br)ccc2=N1`, which Potency is on record?
The Potency was inconclusive [inhibitor, partial curve, poor fit].

With `O=C(NCc1ccco1)c1cc([N+](=O)[O-])cc([N+](=O)[O-])c1` as the compound, how does the Potency read?
The Potency was inconclusive [inhibitor, full curve, poor fit].

`Cc1c(-c2ccccc2)nc(N)c(C#N)c1-c1cccs1` was tested. Which Potency did it give?
The Potency was inconclusive [inhibitor, partial curve].

`Cc1cccc(CN2C(=O)c3ccccc3S(=O)(=O)c3ccc(C(=O)N4CCCC4)cc32)c1` was tested. Which Potency did it give?
The Potency was inconclusive [inhibitor, single point].

Which Potency does the source give for `COc1ccc(/C=N/Nc2nc(N3CCCC3)nc(N3CCCC3)n2)c(OC)c1OC` here?
The Potency was inconclusive [inhibitor, single point].

How did the “activity change, negative = inhibition” value turn out when `COc1ccccc1/C=C1\SC(=S)N(CCC(=O)NNC(=O)c2ccccc2O)C1=O` was run?
Its value is inactive: -7.84%.
